# Test results as given in the RNAGym collection of RNA variant scans (doi:10.1093/nar/gkz1192).
# The source gives no read counts; variants with many changes may rest on few reads.
# B1: CPEB3 Ribozyme (parent)
# chain: UAACAGGGGGCCACAGCAGAAGCGUUCACGUCGCAGCCCCUGUCAGAUUCUGGUGAAUCUGCGAAUUCUGCUGUAUAUCUC
# Variants of: B1
# Experiment: self-cleavage, relative activity (ratio to wild type); higher = more cleavage; in vitro, sequencing
# Method in brief: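 Relative activity compares each variant's cleaved/total read fraction with that of the unmutated ribozyme. To get these fractions, barcoded CPEB3 ribozyme libraries from rounds of error-prone PCR were transcribed with T7 RNA polymerase for 5 hours at 37°C and then given 15 min of DNase I treatment before EDTA was added. The RNAs were reverse transcribed with template switching and sequenced on Illumina, and DNA sequencing linked barcodes to variants. A minimum of 5 reads applied, and three batches were averaged.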
row,Variant,self-cleavage
1,A28G A45G G55A A56G,0.37
2,A28G A45G G55U,0.18
3,A28G A45G U48C U51A A65U A77U U80C,0.05
4,A28G A45G U51A,0.35
5,A28G A45G U51C U67C,0.17
6,A28G A45G U54A,0.48
7,A28G A45G U67C,0.16
8,A28G A45U A47G A65G,0.14
9,A28G A45U A77U,0.44
10,A28G A45U C50U U66C U72C,0.01
11,A28G A45U U48C,0.09
12,A28G A45U U49C U51A U69C,0.11
13,A28G A45U U58C,0.08
14,A28G A45U U74C,0.38
15,A28G A47G A64G,0.41
16,A28G A47G G55U U74C,0.51
17,A28G A47G U48C U51A A56U U58C,0.18
18,A28G A47G U49A A57U U72C,0.14
19,A28G A47G U49A C50U U66C U80C,0.08
20,A28G A47G U49C A65G U69A,0.07
21,A28G A47G U51A U80A,0.66
22,A28G A47G U51C A57G U67C U72C A77U,0.06
23,A28G A47G U54A A64G U66C U72A,0.08
24,A28G A47G U54A A77U,0.82

row,Variant,self-cleavage
1,A28G A47G U58C U78A,0.9
2,A28G A47G U60G,0.12
3,A28G A47G U66A,0.26
4,A28G A47G U69C U72C,0.09
5,A28G A47G U69G,0.19
6,A28G A47G U76C,0.57
7,A28G A47U U49C,0.29
8,A28G A47U U49C C62U A64G,0.2
9,A28G A47U U69A,0.39
10,A28G A56G A57G U60C,0.15
11,A28G A56G C79U,0.84
12,A28G A56G G63C U72A U80A,0.33
13,A28G A56G U58C,0.46
14,A28G A56G U76C,0.3
15,A28G A56G U76G,0.53
16,A28G A56U A57G,0.14
17,A28G A56U A65G,0.12
18,A28G A56U U60A U66C U69C U78C,0.11
19,A28G A56U U60C,0.45
20,A28G A56U U76C,0.32
21,A28G A57C A65G,0.06
22,A28G A57G C62A,0.1
23,A28G A57G U66C U67A,0.13
24,A28G A57G U69G,0.15

row,Variant,self-cleavage
1,A28G A57G U74C,0.76
2,A28G A64G C81G,0.5
3,A28G A64G U69A,0.14
4,A28G A64G U72A,0.38
5,A28G A64G U72A U80A,0.26
6,A28G A64U A65G U72C,0.13
7,A28G A64U A75G,0.12
8,A28G A64U U72C U74C A75G,0.13
9,A28G A65G U69A G73U,0.15
10,A28G A75G U80C,0.23
11,A28G A77G U78G,0.3
12,A28G C29A A75G,0.25
13,A28G C29A U51C,0.18
14,A28G C29G A57G,0.31
15,A28G C29U A47G U54C,0.11
16,A28G C29U A64U,0.31
17,A28G C29U C37A A45U A57G A64U,0.08
18,A28G C29U G33A U80A,0.1
19,A28G C29U G42A U43G,0.28
20,A28G C29U G53A A56G,0.3
21,A28G C29U G55A A64G,0.16
22,A28G C29U U49C A64U,0.04
23,A28G C29U U51A A57G,0.05
24,A28G C29U U69A,0.13

row,Variant,self-cleavage
1,A28G C29U U72A U80C,0.51
2,A28G C29U U80A,0.58
3,A28G C32A C79U,0.1
4,A28G C32G A64G,0.38
5,A28G C32U A35U A56U,0.06
6,A28G C32U U41C U60C,0.07
7,A28G C32U U48C U51C A56U,0.17
8,A28G C32U U49C U51A U78C,0.14
9,A28G C32U U54C U58C,0.08
10,A28G C32U U58C,0.06
11,A28G C32U U69C,0.32
12,A28G C34A C44A A56U U74C,0.08
13,A28G C34A U51C G52U C62U A65U U67A,0.19
14,A28G C34G A56G A57G,0.07
15,A28G C34G U54C A77U U80C,0.07
16,A28G C34U A56G U80C,0.12
17,A28G C34U U43G C59A U69A,0.1
18,A28G C37A C39A A56G G61A,0.06
19,A28G C37A U60A A65G G70A,0.08
20,A28G C37A U69C,0.11
21,A28G C37A U74C,0.13
22,A28G C37U A64G,0.18
23,A28G C37U U48A U72A,0.16
24,A28G C37U U48C U51A,0.06

row,Variant,self-cleavage
1,A28G C37U U76A,0.4
2,A28G C38A A45U U48C U69A,0.05
3,A28G C38A A57G U69G,0.07
4,A28G C38A A75G,0.24
5,A28G C38A U41C U58C U72A,0.05
6,A28G C38A U78C,0.15
7,A28G C38G A45G U51A U60C U72C,0.02
8,A28G C38U U41C A56G U58A U69C,0.06
9,A28G C38U U48C U67C U74C,0.1
10,A28G C39A U66C G70A,0.13
11,A28G C39G U49A U51C A57G,0.14
12,A28G C39U U54C A64U,0.11
13,A28G C39U U60A,0.08
14,A28G C40A A56G,0.05
15,A28G C40A A77U,0.11
16,A28G C40G A47G U72G,0.48
17,A28G C40U C59U U74A U80C,0.59
18,A28G C40U G42U U54A U80A,0.09
19,A28G C40U U41G U76A,0.19
20,A28G C40U U43C A57G U72C U76A,0.04
21,A28G C40U U49C,0.44
22,A28G C44G U60C,0.12
23,A28G C44U U48C A56G,0.04
24,A28G C50A A57G U74A,0.58

row,Variant,self-cleavage
1,A28G C50U A56G U72C,0.52
2,A28G C50U U51A U66A U69C,0.15
3,A28G C50U U69C U72A U74A U78C,0.12
4,A28G C50U U72A,0.17
5,A28G C62U U69C,0.06
6,A28G C62U U76C,0.12
7,A28G G30A A56U U58C U66C U78C,0.04
8,A28G G30A A77G,0.07
9,A28G G30A U41C U43A U80C,0.13
10,A28G G30A U67C U72C,0.05
11,A28G G30A U72C U80C,0.24
12,A28G G30U U43C U60C,0.03
13,A28G G33A A35G,0.19
14,A28G G33A A35G U49C U51A U78C,0.2
15,A28G G33A A45U U58A A64G,0.12
16,A28G G33A C39U,0.14
17,A28G G33A G61A U74C,0.17
18,A28G G33A U41A U51C U69A,0.06
19,A28G G33A U43C A77G U78A,0.06
20,A28G G33A U48C A57U,0.35
21,A28G G33A U54G,0.14
22,A28G G33A U66A,0.11
23,A28G G33C A35G U54A U60C U66C,0.12
24,A28G G33C C68A U78A,0.05

row,Variant,self-cleavage
1,A28G G36A A57U A65G U67C C68A,0.02
2,A28G G36A A75G,0.16
3,A28G G36A U49A U54A,0.13
4,A28G G36A U54A,0.14
5,A28G G36A U54C A57G U80C,0.06
6,A28G G36A U67C U69A,0.34
7,A28G G36C A56G,0.17
8,A28G G36U U48C U49A U66C,0.1
9,A28G G36U U78A,0.13
10,A28G G42A G46A U51A A56G G73C,0.14
11,A28G G42A U51C,0.21
12,A28G G42A U51C U66C A77G,0.1
13,A28G G42U U43A U48C U60A,0.17
14,A28G G46A U67G,0.12
15,A28G G52A U67C,0.4
16,A28G G52C A57G A64G C68A,0.16
17,A28G G53A U67C U72A U80C,0.13
18,A28G G53A U69C,0.28
19,A28G G53A U72A,0.32
20,A28G G55A A56G G63A,0.18
21,A28G G63U A64G U78A,0.38
22,A28G U31A A35G A47U U49C U72C,0.07
23,A28G U31A A45G,0.18
